Consider 19 variants from the RNAGym collection of RNA variant scans (doi:10.1073/pnas.2313332121).

To fix the notation:
B1: TPR 5TU (parent)
chain: GGAUCUUCUCGAUCUAACAAAAAAGACAAAUCUGCCACAAAGCUUGAGAGCAUCUUCGGAUGCAGAGGCGGCAGCCUUCGGUGGCGCGAUAGCGCCAACGUUCUCAACUAUGACACGCAAAACGCGUGCUCCGUUGAAUGGAGUUUAUCAUG

Variants at the background level are over-represented here.

In this data set the parent is B1. The data set is described as follows: polymerase ribozyme fitness, log enrichment relative to wild type (log ratio); higher = more active; in vitro selection for triplet polymerase activity. The procedure, abridged: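 Frozen incubation at −7 °C formed the core of a single, triplicate in vitro selection round applied to PCR-built, transcribed mutant libraries of each subunit of a heterodimeric triplet polymerase ribozyme. Extended constructs were gel-excised, captured with streptavidin beads and amplified by RT-PCR, and input and output libraries were Illumina-sequenced with a filter of ≥10 input reads and ≥1 read per output. Fitness is the logarithm of genotype enrichment relative to wild-type enrichment, with inverse-variance-weighted replicate averaging, and the logarithm is base 2.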
In the case of GGAUCUUCUCGAUCUAACAAAAAAGACAAUUCUGCCACAAAGCUUGAGAGCCUCUUCGGAUGCAGAGGCGGCAGCCUUCGGUGGCGCGAUGGCGCCAACGUUCUCAACUAUGACACACAAAACGCGUGCUCCGUUGAAUGGAGUUUAUCAUG [A30U A52C A91G G117A], the “polymerase ribozyme fitness (log ratio)” value is at most -4.2.

Turning to GGAUCUUCUCGAUCUAACAAAAAAGACAAUUCUGCCACAAAGCUUGAGCGCAUCUUCGGAUGCAGAGGCGGCAGCUUUCGGUGGCGCGAUAGCGCCAACGUUCUCAACUAUGACACGCAAAACGGCUGCUCCGUUGUAUGGAGUUUAUCAGG [A30U A49C C76U C125G G126C A137U U151G], the “polymerase ribozyme fitness (log ratio)” value was at most -4.2.

For GGAUCUUCUCGAUCUAACAAAAAAGACAAUUCUGCCACAAAGCUUGAGAGCCUCUUCGGAUGCAGAGGCGGCAGCCUUCGGAGGCGCGAUAGCGCCAACGAUCUCAACUAUGACACGCAAAACGCGUACUCCGUUUAAUGCAGUUUAUCAUG [A30U A52C U82A U101A G128A G136U G141C], the “polymerase ribozyme fitness (log ratio)” value is at most -4.2.

Take GGAUCUUCUCGAUCUAACAAAAAAGACAAUUCUGCCACAAAGCUUGAGGGCAUCUUCGGAUGCAGAGGCGGCAGCCUUCGGUGGCGCGAUAGCGCCAACGUUCUCAACUAUGACACGCAAAACGCGUGCUCCGUUGAAUGGAGUUUAUCAUG [A30U A49G]: the “polymerase ribozyme fitness (log ratio)” value was at most -4.2.

As for GGAUCUUCUCGAUCUAACAAAAAAGACAAUUCUGCCACAAAGCUUGAGAGCUUCUUCGGAUGCAGAGGCGGCAGCCUUUGGUGGCGCGAUAGCGCCAACGGUCUCAACUAUGACACGCAAAACGCGUGCUCCGUUGAAUGGAGUUUAUCAUG [A30U A52U C79U U101G], the “polymerase ribozyme fitness (log ratio)” value was at most -4.2.

For GGAUCUUCUCGAUCUAACAAAAAAGACAAUUCUGCCACAACGCUUGAGAGCAUCUUCUGAUGCAGAGGCGGCAGCCUUCGAUGGCGCGAUAGCGCCAACGUUCUCAACUAUGACACGCAAAACGCGUGCUCCGUUGAAUGGAGUUUAUCAUG [A30U A41C G58U G81A], the “polymerase ribozyme fitness (log ratio)” value was at most -4.2.

GGAUCUUCUCGAUCUAACAAAAAAGACAAUUCUGCCACAAGGCUUGAGAGCAUCUUGGGAAGCAGAGGCGGCAGCCUUCGGUGGCGCGAUAGCGCCGACGGUCUCAACUAUGACACGCAAAACGCGUGCUCCGUUGAAUGCAGUUUAUCAUG [A30U A41G C57G U61A A97G U101G G141C]: the “polymerase ribozyme fitness (log ratio)” value is at most -4.2.

On to GGAUCUUCUCGAUCUAACAAAAAAGACAAUUCUGCCACAAUGCUUGCGAGCAUCUUCGGAUGCAGAGGCGGCAGCCUUCGGUGGCGCGAUAGUGCCAACGUUCUCAGCUAUGACCCGCAAAACGCGUGCUCCGUAGAAUGGAGUUUAUCAUG [A30U A41U A47C C93U A107G A115C U135A], for which the “polymerase ribozyme fitness (log ratio)” value is at most -4.2.

In the case of GGAUCUUCUCGAUCUAACAAAAAAGACAAUUCUGCCACAAAGCUUGAGCGCAUUUUCGGAUGCAGAGGCGGCAGCCUUCGGUGGCACGAUAGCGCCAACGUUCUCAACUAUGACACGCAAAACGCGUGCUCCGUUGAAUGCAGUUUACCAUG [A30U A49C C54U G86A G141C U148C], the “polymerase ribozyme fitness (log ratio)” value is at most -4.2.

As for GGAUCUUCUCGAUCUAACAAAAAAGACAAUUCUGCCACAGAGCUUGAGAGCAUCUUCGGAUGCAGAGGCGGCAGCCUUCUGUGGCGCCCUACCGCCAACGUUCUCAACUAUGACACGCAAAACGCGUGCUCCGUUGAAUGGAGCUUAUCAUG [A30U A40G G80U G88C A89C G92C U144C], the “polymerase ribozyme fitness (log ratio)” value is at most -4.2.

Take GGAUCUUCUCGAUCUAACAAAAAAGACAAUUCUGCCACAAAGCUUGAGAGCGUCUUCGGAUGCAGAGGCGGCAGCUUUCGGUAGCUCGAUAGCGCCAACGUUCUCAACUAUGACACGCAAAACGCGUGCUCCGUUGAAUGGAGUUUAACAUG [A30U A52G C76U G83A G86U U148A]: the “polymerase ribozyme fitness (log ratio)” value is at most -4.2.

Take GGAUCUUCUCGAUCUAACAAAAAAGACAAUUCUGCCACAUAGCUUGAGAGCAUCUUCGGAUGCAGAGGCGGCAGCCUUCGGUGGCGGGAUAGCGCCAACGUUGUCAACUAUGACACGCAAAACGCGUGCUCCGUUGAAUGAAGUUUAUCAUG [A30U A40U C87G C103G G141A]: the “polymerase ribozyme fitness (log ratio)” value was -3.9.

Consider GGAUCUUCUCGAUCUAACAAAAAAGACAAUUCUGCCACAAAGCUUGAGCGCAUCUUCAGAUGCAGAGGCGGCAGCCUUCGGUGGCGCGAUAGCGCCAACGUUCUCAACUAUGACACGCCAAACGCGUUCUCCGGUGAAUGGAGUUUAUCAUG [A30U A49C G58A A119C G128U U134G], for which the “polymerase ribozyme fitness (log ratio)” value is at most -4.2.

As to GGAUCUUCUCGAUCUAACAAAAAAGACAAUUCUGCCACAAAGCUUGAGAGCGUCUUUGGAUGCAGAGGCGGCAGCCUUCGGUGGCGCGAUAGCGCCAACGUUCUCAACUAUGACACGCAAAACGCGUGCUCCGUUGAGUGGAGUUUAUCAUG [A30U A52G C57U A138G], the “polymerase ribozyme fitness (log ratio)” value was at most -4.2.

Turning to GGAUCUUCUCGAUCUAACAAAAAAGACAAUUCUGCCACAAAGCUUGAGGGCAUUUUCGGAUGCAGAGCCGGCAGCCUUCGGUGGCGCGAUCGCGCCAACGUUCUCAACUAUGACACGCAAAACGCGUGCUCCGUUGAAUGGAGUUUAUCAUG [A30U A49G C54U G68C A91C], the “polymerase ribozyme fitness (log ratio)” value was at most -4.2.

Regarding GGAUCUUCUCGAUCUAACAAAAAAGACAAUUCUGCCACAAAGCUUGAGAGCGUCUUCGGAUGCAGAGGCGGCAGCCUUCGGUGGCGCGAUGGCGUCAACGUGGUUAACUAUGACACGCAAAACGCGUGCUCCGUUGAAUGGAGUUUAUCAUG [A30U A52G A91G C95U U102G C103G C105U], the “polymerase ribozyme fitness (log ratio)” value is at most -4.2.

As for GGAUCUUCUCGAUCUAACAAAAAAGACAAUUCUGCCACAAUGCUUGAGAGCAUCUUCGGAUGCAGAGGCUGCAGCCUUCGGUGGCGCGAUAUCGCCAACGUUCUCAACUAUGACACGCAAAACGCGUGCUCCGUUGAAUGGAGUUUAUUAUG [A30U A41U G70U G92U C149U], the “polymerase ribozyme fitness (log ratio)” value was at most -4.2.

As for GGAUCUUCUCGAUCUAACAAAAAAGACAAUUCUGCCACAACGCUUGAGAGCAUCUUCGGAUGCAGAGGAGGCAGCCUUCGGUGGCGCGAUAGCGCCAACGUUCUCUACUGUGACACGCAAAACGCGUGCUCCGUUGAAUGGAGUUUAUCAUG [A30U A41C C69A A106U A110G], the “polymerase ribozyme fitness (log ratio)” value is at most -4.2.

With GGAUCUUCUCGAUCUAACAAAAAAGACAAUUCUGCCACAAAGCUUGAGAGCUUCUUCGGAUGCAGAGGCGGCAGCCUUCGGUGGCGCGAAAGGGCCAACGUUCUCAACUAUGCCACGCAAAACGCGUGCUCCGUUGAAUGGAGUUUAUCAUG [A30U A52U U90A C93G A113C], the “polymerase ribozyme fitness (log ratio)” value was at most -4.2.
